The list shows a part of the results. Single values are uncertain, as repeats are few or missing.
Test system: IST-MEL1
Assay: cell count relative to DMSO control; melanoma cells; higher = more viable cells
Conditions: library dose: standard library concentration; 72 h
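Also: cells treated in 1,536-well plates, then fixed and DAPI-stained, with nuclei counted from automated high-throughput microscope images.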

Compound	cell count
O=C(Nc1cccc(Cl)c1)Nc1ncc(CCNc2ncnc3ccsc23)s1 + O=C1NC(=O)/C(=C/c2ccc(-c3ccc(F)cc3O)o2)S1 [AS252424] (first compound 0.004 µM, partner dose 5 µM)	54.1%
CC1(C)NC(=O)N(c2ccc([N+](=O)[O-])c(C(F)(F)F)c2)C1=O [nilutamide] + Oc1cc(-c2nc(-c3ccccc3)[nH]c2-c2ccncc2)ccc1Cl [L779450] (first compound 5 µM, partner dose 1 µM)	93.1%
O=C(O)c1ccc(-c2c[nH]c3ncc(-c4ccccc4)cc23)cc1C1CCCC1 + O=C1NC(=O)/C(=C/c2ccc(-c3ccc(F)cc3O)o2)S1 [AS252424] (first compound 0.8 µM, partner dose 5 µM)	69.6%
O=C(Nc1cccc(Cl)c1)Nc1ncc(CCNc2ncnc3ccsc23)s1 + CN(C)S(=O)(=O)c1ccc2c(c1)/C(=C/c1cc3c([nH]1)CCCC3)C(=O)N2 [SU6656] (first compound 0.004 µM, partner dose 2 µM)	39.5%
O=c1[nH]nc(Sc2ncc([N+](=O)[O-])s2)n1-c1ccc2c(c1)OCCO2 + O=C(/C=C/c1cccnc1)NCCCCC1CCN(C(=O)c2ccccc2)CC1 [FK866] (first compound 1 µM, partner dose 0.05 µM)	59.1%
O=C(O)c1ccc(-c2c[nH]c3ncc(-c4ccccc4)cc23)cc1C1CCCC1 + CC(C)CCN1c2nc(Nc3cc(F)c(O)c(F)c3)ncc2N(C)C(=O)C1C [BID1870] (first compound 0.8 µM, partner dose 1 µM)	49.4%
O=C(O)c1ccc(-c2c[nH]c3ncc(-c4ccccc4)cc23)cc1C1CCCC1 + COc1cc2ncnc(Nc3ccc(Oc4ccccc4)cc3)c2cc1OC [SrcI1] (first compound 0.8 µM, partner dose 10 µM)	78.6%
O=c1[nH]nc(Sc2ncc([N+](=O)[O-])s2)n1-c1ccc2c(c1)OCCO2 + CC(C)C[C@H](NC(=O)[C@H](Cc1ccccc1)NC(=O)c1cnccn1)B(O)O [Bortezomib] (first compound 1 µM, partner dose 0.005 µM)	13.3%
O=c1[nH]nc(Sc2ncc([N+](=O)[O-])s2)n1-c1ccc2c(c1)OCCO2 + CCc1ccc(CCOc2ccc(CC3SC(=O)NC3=O)cc2)nc1 [pioglitazone] (first compound 1 µM, partner dose 10 µM)	96.6%
C[C@@H]1CCN(C(=O)CC#N)C[C@@H]1N(C)c1ncnc2[nH]ccc12 + COc1ccc(-c2ccc3c(N4CCOCC4)nc(N4C[C@@H](C)O[C@@H](C)C4)nc3n2)cc1CO [KU0063794] (first compound 5 µM, partner dose 0.1 µM)	112%
C[C@@H]1CCN(C(=O)CC#N)C[C@@H]1N(C)c1ncnc2[nH]ccc12 + O=S(=O)(c1ccccc1)N(CC(F)(F)F)c1ccc(C(O)(C(F)(F)F)C(F)(F)F)cc1 [T0901317] (first compound 5 µM, partner dose 7 µM)	95%

Test system: LB2518-MEL
Assay: as above
Conditions: library dose: standard library concentration; 72 h

Compound	cell count
O=c1[nH]nc(Sc2ncc([N+](=O)[O-])s2)n1-c1ccc2c(c1)OCCO2 + Cn1nnc2c(C(N)=O)ncn2c1=O [temozolomide] (first compound 1 µM, partner dose 10 µM)	65%
Cn1cncc1[C@@](N)(c1ccc(Cl)cc1)c1ccc2c(c1)c(-c1cccc(Cl)c1)cc(=O)n2C [tipifarnib] + O=C(O)C(=O)Nc1sc2c(c1C(=O)O)CCNC2 [TCS401] (first compound 0.05 µM, partner dose 8.33333 µM)	69.4%
O=C(Nc1cccc(Cl)c1)Nc1ncc(CCNc2ncnc3ccsc23)s1 + CCc1ccc(CCOc2ccc(CC3SC(=O)NC3=O)cc2)nc1 [pioglitazone] (first compound 0.004 µM, partner dose 10 µM)	75.1%
O=c1[nH]nc(Sc2ncc([N+](=O)[O-])s2)n1-c1ccc2c(c1)OCCO2 + O=C(O)c1ccc(-c2c[nH]c3ncc(-c4ccccc4)cc23)cc1C1CCCC1 [GSK650394] (first compound 1 µM, partner dose 0.8 µM)	132%
O=c1[nH]nc(Sc2ncc([N+](=O)[O-])s2)n1-c1ccc2c(c1)OCCO2 + O=C(Nc1cccc(Cl)c1)Nc1ncc(CCNc2ncnc3ccsc23)s1 [SNS314] (first compound 1 µM, partner dose 0.004 µM)	80%
COc1cc(Nc2ncc(F)c(Nc3ccc4c(n3)NC(=O)C(C)(C)O4)n2)cc(OC)c1OC [Tamatinib] + CCCCCCCCCCCC1=C(O)C(=O)C=C(O)C1=O [Embelin] (first compound 2 µM, partner dose 6 µM)	56%
CC1(C)NC(=O)N(c2ccc([N+](=O)[O-])c(C(F)(F)F)c2)C1=O [nilutamide] + O=C1NC(=O)/C(=C/c2ccc(-c3ccc(F)cc3O)o2)S1 [AS252424] (first compound 5 µM, partner dose 5 µM)	93.5%
Cn1cncc1[C@@](N)(c1ccc(Cl)cc1)c1ccc2c(c1)c(-c1cccc(Cl)c1)cc(=O)n2C [tipifarnib] + O=C(Nc1ccccc1)c1cc([N+](=O)[O-])ccc1Cl [GW9662] (first compound 0.05 µM, partner dose 10 µM)	63.1%
O=c1[nH]nc(Sc2ncc([N+](=O)[O-])s2)n1-c1ccc2c(c1)OCCO2 + C[C@@H](N)c1ccc(C(=O)Nc2ccnc3[nH]ccc23)cc1 [RKI983] (first compound 1 µM, partner dose 2 µM)	96.3%
O=C(O)c1ccc(-c2c[nH]c3ncc(-c4ccccc4)cc23)cc1C1CCCC1 + COc1cc(N2CCC(N3CCN(C)CC3)CC2)ccc1Nc1ncc(Cl)c(Nc2ccccc2S(=O)(=O)C(C)C)n1 [NVP-TAE684] (first compound 0.8 µM, partner dose 0.4 µM)	82.5%
O=c1[nH]nc(Sc2ncc([N+](=O)[O-])s2)n1-c1ccc2c(c1)OCCO2 + COc1cc(Nc2ncc(F)c(Nc3ccc4c(n3)NC(=O)C(C)(C)O4)n2)cc(OC)c1OC [Tamatinib] (first compound 1 µM, partner dose 2 µM)	90.3%
O=c1[nH]nc(Sc2ncc([N+](=O)[O-])s2)n1-c1ccc2c(c1)OCCO2 + COc1cc(N2CCC(N3CCN(C)CC3)CC2)ccc1Nc1ncc(Cl)c(Nc2ccccc2S(=O)(=O)C(C)C)n1 [NVP-TAE684] (first compound 1 µM, partner dose 0.4 µM)	83.7%
COc1cc(Nc2ncc(F)c(Nc3ccc4c(n3)NC(=O)C(C)(C)O4)n2)cc(OC)c1OC [Tamatinib] + CC1(C)NC(=O)N(c2ccc([N+](=O)[O-])c(C(F)(F)F)c2)C1=O [nilutamide] (first compound 2 µM, partner dose 5 µM)	104%
O=C(O)c1ccc(-c2c[nH]c3ncc(-c4ccccc4)cc23)cc1C1CCCC1 + COc1ccc2c(c1)CCC1C2CCC2(C)C(NCCCCCCN3C(=O)C=CC3=O)CCC12 [U73122] (first compound 0.8 µM, partner dose 2 µM)	79.4%
O=c1[nH]nc(Sc2ncc([N+](=O)[O-])s2)n1-c1ccc2c(c1)OCCO2 + CO[C@@H]1[C@H](N(C)C(=O)c2ccccc2)C[C@H]2O[C@]1(C)n1c3ccccc3c3c4c(c5c6ccccc6n2c5c31)C(=O)NC4 [Midostaurin] (first compound 1 µM, partner dose 0.4 µM)	48.5%
Cn1cncc1[C@@](N)(c1ccc(Cl)cc1)c1ccc2c(c1)c(-c1cccc(Cl)c1)cc(=O)n2C [tipifarnib] + NCC(=O)Nc1ccc(-n2nc(C(F)(F)F)cc2-c2ccc3c(ccc4ccccc43)c2)cc1 [OSU03012] (first compound 0.05 µM, partner dose 5 µM)	86.2%
C[C@@H]1CCN(C(=O)CC#N)C[C@@H]1N(C)c1ncnc2[nH]ccc12 + Cc1cc([N+](=O)[O-])ccc1NS(=O)(=O)c1cc(Cl)ccc1Cl [FH535] (first compound 5 µM, partner dose 5 µM)	88.1%
CC1(C)NC(=O)N(c2ccc([N+](=O)[O-])c(C(F)(F)F)c2)C1=O [nilutamide] + N#Cc1c(O)c2c(-c3ccc(-c4ccccc4O)cc3)csc2[nH]c1=O [A769662] (first compound 5 µM, partner dose 10 µM)	80.8%
O=c1[nH]nc(Sc2ncc([N+](=O)[O-])s2)n1-c1ccc2c(c1)OCCO2 + Cc1ccc(Nc2nccc(N(C)c3ccc4c(C)n(C)nc4c3)n2)cc1S(N)(=O)=O [Pazopanib] (first compound 1 µM, partner dose 2 µM)	81.5%
O=C(Nc1cccc(Cl)c1)Nc1ncc(CCNc2ncnc3ccsc23)s1 + Oc1cc(-c2nc(-c3ccccc3)[nH]c2-c2ccncc2)ccc1Cl [L779450] (first compound 0.004 µM, partner dose 1 µM)	72%
COc1cc(Nc2ncc(F)c(Nc3ccc4c(n3)NC(=O)C(C)(C)O4)n2)cc(OC)c1OC [Tamatinib] + CCN(CC)CCCCNc1ncc2cc(-c3cc(OC)cc(OC)c3)c(NC(=O)NC(C)(C)C)nc2n1 [PD173074] (first compound 2 µM, partner dose 0.5 µM)	108%
O=c1[nH]nc(Sc2ncc([N+](=O)[O-])s2)n1-c1ccc2c(c1)OCCO2 + Nc1ncn([C@H]2C[C@H](O)[C@@H](CO)O2)c(=O)n1 [decitabine] (first compound 1 µM, partner dose 0.5 µM)	87.1%
